The antibiotic and cytotoxicity screens of Wong et al. (2023)
The other results are listed elsewhere or left out.

What was measured:
HSkMC = human skeletal muscle cells; assay: cytotoxicity call (relative viability < 0.9); details: 10 µM
HepG2 = assay: cytotoxicity call (relative viability < 0.9); details: 10 µM
S. aureus RN4220 = assay: growth inhibition call (relative growth <= 0.2); details: 50 µM

O=C1CN(S(=O)(=O)Cc2ccccc2)C[C@H]2[C@@H](c3ccc(C#Cc4cccc(F)c4)cc3)[C@@H](CO)N12
inactive: cytotoxicity call (HSkMC) | cytotoxicity call (HepG2) | growth inhibition call (S. aureus RN4220)

CC(=O)C1CCC2C3CC=C4CC(OC(=O)CCC(=O)O)CCC4(C)C3CCC12C (stereo not given)
inactive: cytotoxicity call (HSkMC) | cytotoxicity call (HepG2) | growth inhibition call (S. aureus RN4220)

COc1ccc(S(=O)(=O)Nc2ccc3c(c2)CC(=O)N([C@H](C)CO)C[C@@H](C)[C@@H](CN(C)S(=O)(=O)c2cn(C)cn2)O3)cc1
inactive: cytotoxicity call (HSkMC) | cytotoxicity call (HepG2) | growth inhibition call (S. aureus RN4220)

CC(=O)Nc1c(I)c(NC(C)=O)c(I)c(C(=O)O)c1I
inactive: cytotoxicity call (HSkMC) | cytotoxicity call (HepG2) | growth inhibition call (S. aureus RN4220)

Cc1cc(C(=O)Nc2cccc3c2O[C@@H](CN(C)S(=O)(=O)c2ccccc2)[C@H](C)CN([C@@H](C)CO)C3=O)n(C)n1
inactive: cytotoxicity call (HSkMC) | cytotoxicity call (HepG2) | growth inhibition call (S. aureus RN4220)

COc1ccc(S(=O)(=O)N(C)C[C@H]2Oc3c(NC(=O)Nc4c(C)noc4C)cccc3C(=O)N([C@@H](C)CO)C[C@@H]2C)cc1
inactive: cytotoxicity call (HSkMC) | cytotoxicity call (HepG2) | growth inhibition call (S. aureus RN4220)

C[C@H]1CN([C@@H](C)CO)C(=O)c2cc(C#Cc3cccc(F)c3)cnc2O[C@@H]1CN(C)CC1CCOCC1
inactive: cytotoxicity call (HSkMC) | cytotoxicity call (HepG2) | growth inhibition call (S. aureus RN4220)

Cc1ccc(S(=O)(=O)N(C)C[C@H]2Oc3cc(C#Cc4ccccc4)ccc3S(=O)(=O)N([C@H](C)CO)C[C@H]2C)cc1
inactive: cytotoxicity call (HSkMC) | cytotoxicity call (HepG2) | growth inhibition call (S. aureus RN4220)

Cc1noc(C)c1NC(=O)N(C)C[C@H]1Oc2ncc(C#CCN(C)C)cc2C(=O)N([C@H](C)CO)C[C@@H]1C
inactive: cytotoxicity call (HSkMC) | cytotoxicity call (HepG2) | growth inhibition call (S. aureus RN4220)

O=C(C[C@@H]1CC[C@H]2[C@@H](COC[C@H](O)CN2C(=O)Nc2ccc(Cl)cc2)O1)NC1Cc2ccccc2C1
inactive: cytotoxicity call (HSkMC) | cytotoxicity call (HepG2) | growth inhibition call (S. aureus RN4220)
